The supplement of paper PMC4967469
A lower IC50 marks a more sensitive line; a limit (>, <) means that the fit lies beyond the doses tested. AUC is the area under the same curve over the 256-fold range up to the top dose, as a fraction; the more sensitive the line, the further below 1. For part of these data: An inferred top dose is not printed in the source and was worked back from the curve model. For part of these data: An entry number marks a drug with two screens in the source, which often give different values.

How the values were obtained:
Assay in all cases: Viability of human cancer cell lines after 72 h of drug (GDSC screen)
JQ1 = compound: Cc1sc2c(c1C)C(c1ccc(Cl)cc1)=N[C@@H](CC(=O)OC(C)(C)C)c1nnc(C)n1-2 [JQ1]
Protocol: (§1)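 Human cancer cell lines in 384-well plates, medium with 10% serum, drug for 72 h over a 256-fold dose range (nine 2-fold or five 4-fold steps up to the top dose). Adherent lines were fixed and stained with the nucleic acid dye Syto60, suspension lines read with resazurin; signal relative to control wells, capped at 0 and 100%. One two-parameter sigmoid per drug and line, fitted in a mixed model over all curves with the slope shared within a line.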

AMG-706 = compound: CC1(C)CNc2cc(NC(=O)c3cccnc3NCc3ccncc3)ccc21 [AMG-706]; settings: top dose 2 µM; top dose inferred
Protocol: as §1

JNJ-26854165 = compound: c1ccc2c(CCNc3ccc(Nc4ccncc4)cc3)c[nH]c2c1 [JNJ-26854165]; settings: top dose 10 µM
Protocol: as §1

Docetaxel = compound: CC(=O)O[C@@]12CO[C@@H]1C[C@H](O)[C@@]1(C)C(=O)[C@H](O)C3=C(C)[C@@H](OC(=O)[C@H](O)[C@@H](NC(=O)OC(C)(C)C)c4ccccc4)C[C@@](O)([C@@H](OC(=O)c4ccccc4)[C@H]21)C3(C)C [Docetaxel]; settings: top dose 0.0125 µM
Protocol: as §1

NSC-207895 = compound: CN1CCN(c2ccc([N+](=O)[O-])c3no[n+]([O-])c23)CC1 [NSC-207895]; settings: top dose 20 µM; top dose inferred
Protocol: as §1

Belinostat = compound: O=C(/C=C/c1cccc(S(=O)(=O)Nc2ccccc2)c1)NO [Belinostat]; settings: top dose 20 µM; top dose inferred
Protocol: as §1

OSI-906 = compound: C[C@]1(O)C[C@@H](c2nc(-c3ccc4ccc(-c5ccccc5)nc4c3)c3c(N)nccn32)C1 [OSI-906]; settings: top dose 2.56 µM; top dose inferred
Protocol: as §1

SB-715992 = compound: Cc1ccc(C(=O)N(CCCN)[C@@H](c2nc3cc(Cl)ccc3c(=O)n2Cc2ccccc2)C(C)C)cc1 [SB-715992]; settings: top dose 0.128 µM; top dose inferred
Protocol: as §1

FTI-277 = compound: COC(=O)[C@H](CCSC)NC(=O)c1ccc(NC[C@@H](N)CS)cc1-c1ccccc1 [FTI-277]; settings: top dose 1.024 µM; top dose inferred
Protocol: as §1

JNK Inhibitor VIII = compound: CCOc1nc(NC(=O)Cc2cc(OC)ccc2OC)cc(N)c1C#N [JNK Inhibitor VIII]; settings: top dose 10 µM; top dose inferred
Protocol: as §1

YM155 = compound: COCC[n+]1c2c(n(Cc3cnccn3)c1C)C(=O)c1ccccc1C2=O [YM155]; settings: top dose 5.12 µM
Protocol: as §1

[1] = top dose 1 µM, screen: GDSC drug entry 1218, top dose inferred
[2] = top dose 2.56 µM, screen: GDSC drug entry 163

Cell Line	AUC (JQ1; [1])	IC50 (JQ1; [1]) [nM]	AUC (JQ1; [2])	IC50 (JQ1; [2]) [nM]	AUC (AMG-706)	IC50 (AMG-706) [nM]	AUC (JNJ-26854165)	IC50 (JNJ-26854165) [nM]	AUC (Docetaxel)	IC50 (Docetaxel) [nM]	AUC (NSC-207895)	IC50 (NSC-207895) [nM]	AUC (Belinostat)	IC50 (Belinostat) [nM]	AUC (OSI-906)	IC50 (OSI-906) [nM]	AUC (SB-715992)	IC50 (SB-715992) [nM]	AUC (FTI-277)	IC50 (FTI-277) [nM]	AUC (JNK Inhibitor VIII)	IC50 (JNK Inhibitor VIII) [nM]	AUC (YM155)	IC50 (YM155) [nM]
Hs633T (fibrosarcoma, adherent)	0.852	565	0.586	263	0.965	> 2000	0.845	5370	0.739	3.22	0.808	8170	0.278	339	0.957	> 2560	0.753	36	0.954	> 1020	0.977	> 10000	0.016	< 20
Hs766T (pancreas, adherent)	0.982	> 1000	0.786	1500	0.981	> 2000	0.899	> 10000	0.898	> 12.5	0.983	> 20000	0.69	5120	0.984	> 2560	0.984	> 128	0.978	> 1020	0.977	> 10000	0.454	230
Hs939-T (melanoma, adherent)	0.985	> 1000	0.788	1240	0.96	> 2000	0.933	> 10000	0.866	> 12.5	0.956	> 20000	0.719	5570	0.986	> 2560	0.966	> 128	0.983	> 1020	0.971	> 10000	0.11	< 20
Hs-578-T (breast, adherent)	0.981	> 1000	0.904	> 2560	0.944	> 2000	0.885	> 10000	0.728	3.64	0.987	> 20000	0.734	6090	0.976	> 2560	0.983	> 128	0.987	> 1020	0.986	> 10000	0.732	1540
HuO9 (osteosarcoma, adherent)	0.981	> 1000	0.529	194	0.842	1630	0.812	6110	0.731	3.86	0.984	> 20000	0.672	4000	0.97	> 2560	0.778	58	0.984	> 1020	0.975	> 10000	0.692	1180
HuO-3N1 (osteosarcoma, adherent)	0.975	> 1000	0.961	> 2560	0.942	> 2000	0.823	8590	0.656	2.44	0.982	> 20000	0.72	6500	0.859	> 2560	0.962	> 128	0.96	> 1020	0.981	> 10000	0.324	87.9
HuP-T3 (pancreas, adherent)	0.974	> 1000	0.842	2430	0.973	> 2000	0.943	> 10000	0.761	5.37	0.916	> 20000	0.46	950	0.922	> 2560	0.879	> 128	0.934	> 1020	0.96	> 10000	0.042	< 20
IGR-1 (melanoma, adherent)			0.62	328	0.99	> 2000	0.752	2970	0.827		0.784	7390	0.263	292	0.96	> 2560	0.857	84.7	0.971	> 1020	0.99	> 10000	0.027	< 20
IHH-4 (thyroid, semi-adherent)	0.991	> 1000	0.615	310	0.991	> 2000	0.854	5570	0.5	0.781	0.886	14600	0.352	533	0.985	> 2560	0.649	18.8	0.926	> 1020	0.985	> 10000	0.014	< 20
IPC-298 (melanoma, adherent)	0.708	239	0.729	709	0.975	> 2000	0.804	4910	0.645	1.96	0.791	8850	0.316	386	0.959	> 2560	0.955	> 128	0.963	> 1020	0.986	> 10000	0.029	< 20
JHH-1 (liver, adherent)	0.977	> 1000	0.558	233	0.983	> 2000	0.88	> 10000	0.803	6.84	0.8	10700	0.095	< 78.1	0.985	> 2560	0.958	> 128	0.984	> 1020	0.984	> 10000	0.035	< 20
